Reference: PubChem BioAssay AID493208 (National Center for Advancing Translational Sciences (NCATS), 2011)
The whole screen tested about 44,000 compounds, of which about 340 (0.77%) were called active. Inconclusive results (about 5%) are left out. Calls come from the whole dose curve; as a rule, active = well fitted inhibition curve with a large enough effect; inconclusive = small, poorly fitted or top-dose-only effect; inactive = flat fitted curve, though single readings scatter. The list shows a part of the results.

assay: Acumen qHTS Assay for Inhibitors of the mTORC1 Signaling Pathway in MEF (Tsc2-/-, p53-/-) Cells: Sytravon; conditions: phospho-rpS6 immunofluorescence/PI, 24 h; series mostly up to 38.3 µM; activity change, negative = inhibition: at the top concentration;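 note: plate controls were DMSO for no effect and rapamycin for full effect; nearly all actives have a fitted effect of over 50% in size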
Procedure, shortened: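 Plate MEFs (Tsc2-/-, p53-/-, empty vector) in DMEM/10% FBS; after 24 h add compound, incubate 24 h at 37 degree Celsius; fix in PFA/TX-100, block, stain phospho-rpS6 and 10 uM PI; scan at 488 nm; report % positive cells.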

Activity change, negative = inhibition, inactive:
CCOc1ccc(NC(=O)CSc2nnc3c(C)cc4ccccc4n23)cc1 -7.67%, COc1ccc(S(=O)(=O)N2CCC(C(=O)Nc3ccc(Oc4ccccc4)cc3)CC2)cc1OC -20.9%, COc1ccc(NC(=O)c2ccc(-c3nc(COc4ccccc4)c(C)o3)cc2)cc1 1.25%, COC(=O)c1ccccc1NC(=O)Cn1nc(C)c2nn(-c3ccc(Cl)cc3)c(C)c2c1=O 4.59%, CCCn1c2ccccc2c2cnn(CC(=O)Nc3ccccc3OC)c(=O)c21 -13.7%, COc1cc(NC(=O)Nc2nnc(N3CCCCC3)s2)cc(OC)c1 0.723%, Cc1nn(-c2ccccc2)c2c1N(CCCC(=O)NCc1ccc(OC(C)C)cc1)C(=O)CS2 0%, CC1CCc2nc3ccc(S(=O)(=O)N4CCC(C(=O)NCc5ccccc5Cl)CC4)cc3c(C(=O)O)c2C1 (stereo not drawn) -4.75%, Cc1ccc2c(CC(=O)Nc3ccc(S(=O)(=O)N4CCC(C)CC4)cc3)coc2c1 -2.59%, O=c1c2[nH]c3ccccc3c2nc(SCc2ccccc2F)n1-c1ccc(F)cc1 -1.21%, CCc1ccccc1NC(=O)Cn1nc(-c2cc(C)ccc2C)c2c(c1=O)CCCC2 0.307%, Cc1ccccc1OCC(=O)Nc1ccc(OCc2cc(=O)n3ccccc3n2)cc1 -14.3%, COc1ccc(Cl)cc1NC(=O)C1CCCN(S(=O)(=O)c2ccc3c(c2)CCCC(=O)N3)C1 (stereo not drawn) 1.94%, Cc1ccc(CNC(=O)c2ccc3oc(=O)n(Cc4ccccc4)c3c2)cc1 0%, O=C(CSc1nc2c(c(=O)[nH]1)CN(Cc1ccc3c(c1)OCO3)CC2)Nc1cc(F)ccc1F 0.75%, CCCCOC(=O)c1ccc(NC(=O)C2(c3cccs3)CCOCC2)cc1 -1.11%, COc1ccc(-c2nnc(SCC(=O)Nc3cccc(C)c3)s2)cc1 -0.982%, CCOC(=O)c1c(NC(=O)CSc2cn(CCNC(=O)c3ccc(OC)cc3)c3ccccc23)sc2c1CCC2 -12.4%, COc1ccc(NC(=O)CSc2nc(-c3ccccc3)cc(-c3cc(OC)c(OC)c(OC)c3)c2C#N)c(OC)c1 7.61%, Cc1nn(CC(=O)Nc2ccc(C(C)C)cc2)c(=O)c2c(C)n(-c3ccc(Cl)cc3)nc12 7.52%, COc1ccc(NC(=O)CSc2nccn2C2CCCC2)cc1OC -0.0379%, COc1ccc(-c2cn3nc(N4CCCC(C(=O)Nc5ccccc5F)C4)sc3n2)cc1 (stereo not drawn) -12%, CCOc1ccccc1N(C)C(=O)c1sc2nc3n(c(=O)c2c1C)CCCC3 5.73%, Cc1ccc(Cn2cc(S(=O)(=O)c3ccccc3)c(=O)c3cc(F)c(N4CCOCC4)cc32)cc1 -4.89%, COc1ccc(NC(=O)C(c2ccc(OC)cc2)N(C)C(=O)Cc2cccs2)cc1 (stereo not drawn) -18.4%, Cn1ccc2cc(S(=O)(=O)N3CCN(C(=O)Nc4cccc(F)c4)CC3)ccc21 0.554%, COc1ccccc1N1CCN(S(=O)(=O)CCNC(=O)c2cc(=O)c3ccccc3o2)CC1 -0.892%, CC(C)(Oc1ccc(Cl)cc1)C(=O)Nc1ccc(-c2nc3ncccc3o2)cc1 -15.1%, COc1ccc(C(CNC(=O)COc2cc(C)c(Cl)c(C)c2)N2CCCCC2)cc1 (stereo not drawn) -7.93%, Cc1ccccc1C(=O)Nc1cccc(-c2nc3cccnc3s2)c1 -5.99%, COc1ccc(Cn2ccc3nc(C)c(C(=O)Nc4ccc(OC)c(OC)c4)cc3c2=O)cc1 -2.53%, O=C(CSc1nc(=O)n(Cc2ccncc2)c2c1CCC2)Nc1ccccc1 0.382%, COc1cccc(N2CCN(C(=O)CCn3nc(C)c(S(=O)(=O)N4CCCC4)c3C)CC2)c1 -8.19%, COc1cccc(CNC(=O)CCc2c(C)c3cc4c(C)coc4cc3oc2=O)c1 3.71%, CCCN(CCC)C(=O)c1c[nH]c2ccc(S(=O)(=O)N(C)c3ccc(Cl)cc3)cc2c1=O 2.13%, COc1cccc(CNC(=O)C2CCC(CNS(=O)(=O)c3cccs3)CC2)c1 (stereo not drawn) -16.7%, O=c1c(S(=O)(=O)c2ccccc2)cn(Cc2ccc(F)cc2)c2cc(N3CCCC3)c(F)cc12 -6.05%, Cc1ccc(OCc2cc(=O)n3c4c(sc3n2)CCCC4)c(C)c1 -1.15%, CCCC(=O)N(c1ccc2oc3c(c2c1)CCCC3)S(=O)(=O)c1ccc(CC)cc1 -13.3%, Cc1ccccc1NC(=O)c1ccc(NC(=O)N2CCSc3ncccc32)cc1 -2.78%, COc1ccc(OC)c(-n2c(=O)[nH]c3cc(C(=O)NCCc4ccc(OC)c(OC)c4)ccc3c2=O)c1 -3.92%, COc1cccc(NC(=O)c2sc(-n3nc(C)c(Cc4ccccc4Cl)c3C)nc2C)c1 -19.3%, CC1CCN(S(=O)(=O)c2ccc3c(c2)N(CC(=O)NCc2ccccc2Cl)C(=O)CO3)CC1 -3.65%, COc1ccc(NCc2nc3ccccc3n2CCOc2ccccc2C)cc1 -13.8%, Cc1ccc(N(C)C(=O)Cn2nc(Cc3ccncc3)c3ccccc3c2=O)cc1C -3.98%, Cc1ccc(CNS(=O)(=O)c2ccc(F)c(C(=O)Nc3ccc(C)c(F)c3)c2)cc1 12.9%, COCCn1c(C)cc(O)c(C(c2ccccc2)N2CCN(c3ccc(F)cc3)CC2)c1=O (stereo not drawn) -0.481%, O=C(NCCS(=O)(=O)N1CCN(c2ccccc2F)CC1)c1cc(=O)c2ccccc2o1 2.11%, O=C(Nc1ccc(F)cc1)c1ccc(-n2cnc3cccnc32)cc1 0.0709%, O=C(NCCc1ccc(Cl)cc1)c1ccc(CS(=O)(=O)Cc2ccc(F)cc2)o1 -10.3%, COC(=O)c1c(SC)nc2ccccc2c1OCc1cccc(C)c1 -1%, CCC(CC)C(=O)Nc1cccc(-c2nc3cccnc3s2)c1 -1.05%, COc1cccc(COC(=O)c2nn(-c3ccccc3)nc2N)c1 -0.636%, COc1ccccc1CCNC(=O)c1cc2c(=O)n3cccc(C)c3nc2n1C -4.64%, CNC(=O)C1CCC(Cn2c(=O)c3sccc3n(Cc3ccccc3)c2=O)CC1 (stereo not drawn) -9.77%, Cc1csc2nc(COC(=O)c3ccccc3NC(=O)c3ccccc3Cl)cc(=O)n12 6.47%, CCc1ccc(NC(=O)N2CC=C(c3c[nH]c4ccccc34)CC2)cc1 -22.5%, CCOc1ccc(-c2nc(Cn3c(=O)cc(-c4ccccc4)c4c(C)nn(C)c43)c(C)o2)cc1OC 0.898%, COc1cc(OC)c(NC(=O)C(C)n2c(=O)cc(-c3ccccc3)c3c(C)nn(C)c32)cc1Cl (stereo not drawn) -13.8%, Cc1ccc(CNC(=O)C2CCN(c3nn4cc(-c5ccc(F)cc5)nc4s3)CC2)cc1 -2.52%, CCOC(=O)c1[nH]c(C)c(CCC(=O)Nc2cc(Cl)ccc2C)c1C -0.862%, COc1ccc(C(=O)NCC(c2cccnc2)N2CCc3ccccc3C2)cc1 (stereo not drawn) 2.47%, CCN(CC)c1ccc(NC(=O)CCS(=O)(=O)c2cccc3nsnc23)c(C)c1 -12.4%, CCSC1=NC2(CCN(C(=O)NC3CCCCC3)CC2)N=C1c1ccc(C)cc1 1.54%, Cc1cc(S(=O)(=O)Nc2cc3c(cc2C)n(C)c(=O)c(=O)n3C)ccc1F -1.48%, Cc1ccccc1NC(=O)CSc1ncc2c(n1)-c1ccccc1N(C)S2(=O)=O -2.98%, CCOc1ccccc1NC(=O)c1c(NC(=O)C(C)Oc2cccc(Cl)c2)sc2c1CCCCC2 (stereo not drawn) 10.3%, Cc1cc(C)c2c(n1)nn1c(C)c(CCC(=O)Nc3ccc(C)c(Cl)c3)c(C)nc21 -5.17%, Cc1cn2c(=O)cc(COC(=O)c3cccc(NC(=O)C(C)Oc4ccccc4)c3)nc2s1 (stereo not drawn) 6.7%, Cc1cccc(S(=O)(=O)c2cn(Cc3ccccc3)c3cc(N4CCC(C)CC4)c(F)cc3c2=O)c1 0.176%, CCn1c(Oc2ccc(F)cc2F)nc2c1c(=O)n(C)c(=O)n2C -10.9%, CCOc1ccc(CC(=O)Nc2c(C(=O)c3ccc(Cl)cc3)oc3ccccc23)cc1OCC 3.71%, CC1=C(C(=O)Nc2ccc(Cl)cc2)C(c2cccs2)n2nc(SCc3cccc(Cl)c3)nc2N1 (stereo not drawn) -2.3%, CCc1cc2c(cc3c(=O)n(CC(=O)NCc4cccc(Cl)c4)nc(CC)n32)s1 -3.7%, COc1cccc(CNC(=O)C(=O)NCC(c2cccs2)S(=O)(=O)c2cccs2)c1 (stereo not drawn) 0.0183%, COc1ccc(-n2nc3cc(C)c(NC(=O)COc4cccc(C)c4)cc3n2)cc1 2.29%, COc1ccc(-c2cc(C(F)(F)F)nc(NCc3ccccc3)n2)cc1OC -1.13%, COc1cccc(CN2c3ccccc3-c3nc(SCC(=O)Nc4cccc(C)c4)ncc3S2(=O)=O)c1 7.5%, CCOc1ccc(NCc2cccn2-c2nnc(N3CCC(C(=O)NC(C)c4ccccc4)CC3)s2)cc1 (stereo not drawn) -0.246%, O=C1C(=O)N(C2CCN(C(=O)c3ccc(F)cc3)CC2)CCN1Cc1ccc(F)cc1 4.96%, CC1CCc2c(sc3nnn(CC(=O)Nc4cccc(C(F)(F)F)c4)c(=O)c23)C1 (stereo not drawn) -4.1%, CCc1nnc2c3ccccc3nc(Nc3ccc(F)cc3C)n12 4.82%, CCN1C(C(=O)c2ccccc2)=C(OC(=O)c2ccc(Cl)cc2)c2ccccc2S1(=O)=O 5.51%, Cc1cccc(OC(C)C(=O)N2CCC(c3nc4ccccc4o3)CC2)c1C (stereo not drawn) 2.78%, CCc1ccc2oc(-c3cccc(NC(=O)c4ccc(-c5cccc([N+](=O)[O-])c5)o4)c3)nc2c1 -8.33%, CCOc1ccc(Br)cc1C1C(C(=O)Nc2ccccc2OC)=C(C)Nc2nnnn21 (stereo not drawn) -17%, CC(=O)N1c2ccc(S(=O)(=O)NCCc3cccc(C)c3)cc2CC1C (stereo not drawn) -7.5%, Cc1oc(-c2ccc(C(=O)N(C)Cc3ccccc3)cc2)nc1CN1CCc2ccccc21 -15.6%, CCOC(=O)c1cccc(NC(=O)N2Cc3ccccc3Oc3ncccc32)c1 -1.64%, COc1ccc(-n2c(=O)c3c4c(sc3n(Cc3ccccc3)c2=O)CCC4)c(OC)c1 -3.52%, CCOC(=O)c1ccc(-c2ccc(/C=C(\C#N)C(=O)Nc3cccc(C)c3)o2)cc1 -7.37%, Cc1ccc(NC(=O)CC2Sc3ccccc3NC2=O)c(C)c1 (stereo not drawn) 12.2%, CCN(C(=O)c1cc(S(=O)(=O)N2CCCCC2)c[nH]1)c1ccc(OC)cc1 0.497%
